From the supplement of paper PMC11417369
± gives the standard deviation of the averaged measurements. Some of the results follow.

Tested on: PfAP2-EXP AP2 domain (GST-tagged)
Experiment: gcPBM binding intensity (ln(normalized median fluorescence intensity)); higher = stronger DNA binding
Method in brief: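 The binding buffer was 1× PBS containing 1% milk, 0.2 mg/ml BSA, 0.5% salmon testes DNA and 0.03% Triton X-100. In it, GST-tagged P. falciparum DNA-binding domains expressed in E. coli were applied for 1 h to an Agilent 4 × 180k array of primer-extended double-stranded 36-bp intergenic genomic probes plus negative controls. Binding intensity, read with Alexa488 anti-GST antibody and a 488 nm scan, is the highest Masliner-normalised natural-log median intensity across replicate spots of either probe orientation.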

Point of comparison: “TCTTTTCAATTTTATATGATCTTAATATTTTATGAA [GTGCAC_negctrl_site294]”, “gcPBM binding intensity (ln)” value 8.36 ± 0.45. Against it:
- ATTCATATGAAACACACACACACACCCATAAAAAAA [CACACA_site3246] — within error, 8.79 ± 0.56
- ATTTTTTACATACTCAAATGTTTTAATTTTTTATAT [CACACA_negctrl_site1213] — within error, 8.47 ± 0.45
- TTTTTTTTTTTTTACACACACAAAATATTATAGGTA [CACACA_site7209] — within error, 8.41 ± 0.51
- ATTTTGGAAATAATATGTACATATACATAATATATA [XGTACX_site4177] — the same, 8.36 ± 0.29
- CGAACACAAACACAAACACACATCATATATATATAT [CACACA_site4857] — higher, 9.97 ± 0.36
- AATATACAAAAAAAAAAAAAAAAAAAAAAGATGGAA [TGCATGCA_negctrl_site550] — within error, 8.27 ± 0.57
- TGAATTTACAAAATCATGCACTTAATTACAGAATAA — within error, 8.38 ± 0.26
- AACAAAGGATTTATATATACATACATACATACATAA [GTGCAC_negctrl_site469] — within error, 8.35 ± 0.33
- ATAAAAAAAAAAAGAAGTACATGTATTAAAATTTAT [XGTACX_site3927] — within error, 9.03 ± 0.35
- AGCAAAATGAAATAAATTGGAAAATATTACTGAACG [CACACA_negctrl_site1433] — within error, 8.56 ± 0.51
- TTTATTATATTTTTTTGTACATATTGATGTATATAA [XGTACX_site6527] — within error, 8.59 ± 0.28
- GCAAATCTTATATGAAGTACATATCTTATAAATAAA [XGTACX_site6903] — within error, 8.23 ± 0.42
- GGTACATACAGACACACACACAAAAAAAAAAAAATA [CACACA_site6844] — within error, 8.48 ± 0.61
- AAAAGTCTTCAAATTTGTACATATATATATATATAT [XGTACX_site3404] — higher, 10.29 ± 0.092
- TTAATATTAATTATATGTACATATAATATATATATA [XGTACX_site1757] — higher, 9.18 ± 0.13
- ATCTTTTCATATTGCTGTACAAATTATTTTCATTCG [XGTACX_site492] — within error, 9.05 ± 0.45
- ATGTTAAACAAATCTATACACACGTATATGACAAAA [CACACA_site1783] — within error, 8.6 ± 0.35
- TGTATAAAATTCCATTGTACATATTATTTTACGACA [XGTACX_site7764] — within error, 8.44 ± 0.3
- GAGAAATGGAGACACACACACATATTATATATATAT [CACACA_site1532] — higher, 9.7 ± 0.28
- GTATACATGCAAATTTTTATTTACAACCCCAAAAAG [XGTACX_negctrl_site255] — within error, 9.1 ± 0.42
- TTTTCATAATATACATGTACATATATAAATTATTAA [XGTACX_site5206] — within error, 8.46 ± 0.44
- TTTTTTTCACAAAATACACACAATATATTTTATATC [CACACA_site1138] — within error, 8.3 ± 0.36
- TATTATAATATGCCTTGTACATATAACAAATTTATT [XGTACX_site108] — within error, 8.46 ± 0.36
- ATGAACAAGTGGCACACACACATTATAACTAATTTA [CACACA_site5731] — within error, 8.56 ± 0.35
- TTTATTTATTACTAAAGTACTAAATCATATTATTAT [XGTACX_site2574] — within error, 8.14 ± 0.4
- AAAATAATATTTCCTTGTACACATATGTATTTGTTC [XGTACX_site4430] — within error, 8.86 ± 0.43
- TTCTTTTTTTTTATCACACATATTACAATCTAGTGC [CACACA_site4697] — within error, 8.73 ± 0.41
- ATATATAATTTTTACACACGCAATAAATATATATAT [CACACA_site4283] — higher, 9.265 ± 0.078
- TTTTGGATTGAGGACCTTTTTATAGAATTATGTTTT [TGCATGCA_negctrl_site544] — within error, 8.44 ± 0.38
- TTAACATAAATATATACACACCAATGATGGCATTTA [CACACA_site4952] — within error, 8.13 ± 0.48
- TATATATAATATATATGTACGTATATATATAATATA [XGTACX_site8383] — within error, 8.38 ± 0.17
- ATGTTATAAGATTTATGTACACACATATACACACCT [XGTACX_site1316] — within error, 8.84 ± 0.42
- GTTTCCTTAATATTCACACACATATATATAATATAT [CACACA_site1856] — within error, 8.95 ± 0.33
- TTTATTTTCCAAAGGGTGCACATAGTTGAAACGATA — higher, 9.71 ± 0.63
- AATAAAGCAATAAATACACACATATTTATATTTATA [CACACA_site7390] — within error, 8.24 ± 0.34
- GGTATACACAAGTATACACACATATATATATATATA [CACACA_site9063] — higher, 10.2 ± 0.22
- CGTGAATATATGATATGTACTTATAAAAATTTGTGC [XGTACX_site5480] — within error, 8.51 ± 0.38
- ATAAATATCTAGGGTTCACACATTATATATCTGTAT [CACACA_site5702] — within error, 8.35 ± 0.48
- ACAAAGTTATAATTCTTGCACTTTAAGGTTCATTTA — within error, 8.28 ± 0.17
- TTTTCCTCTTAAAATATACACACTGATTTAAGAAAA [CACACA_site3301] — within error, 8.27 ± 0.34
- ACGTAATAAAATAGTTGTACAACTTTTTATAATATA [XGTACX_site4393] — within error, 8.68 ± 0.15
- TTTTTTTTTTTTTTTTTTTTTTTTTTGTTCAGGCCT [GTGCAC_negctrl_site143] — within error, 8.28 ± 0.4
- AAACGATTAATGTGTACACACATAGTTATAAACCTA [CACACA_site2110] — within error, 8.51 ± 0.36
- TCATAAATATGAAAAAGTACAAAGGTAGATTTTGAA [XGTACX_site4535] — within error, 8.48 ± 0.3
- TATATATATATTATATGTACGTATGTATGTATATAT [XGTACX_site6451] — higher, 9.44 ± 0.22
- AAAAAAAAAAAAAAATATATATATATATACATACAT [CACACA_negctrl_site317] — within error, 8.39 ± 0.16
- TTTTTCTTTTTTTCTTTTTTTATAAAACTTAATTGT [CACACA_negctrl_site384] — within error, 8.49 ± 0.47
- TATTAATTATATTTATGTACATAATCATATTATTAT [XGTACX_site7938] — within error, 8.55 ± 0.35
- AGAAATATATATATATATATATATATATATATATAT [TGCATGCA_negctrl_site375] — higher, 10 ± 0.45
- TTCATTTTTTGCTTTCAACACACATACAATATATAT [CACACA_site9369] — within error, 8.81 ± 0.39
- AGTAACAAAAGAAAAAAATATGCAAACATATATATA [XGTACX_negctrl_site468] — within error, 8.5 ± 0.42
- AAAAAAAAAAAACACACACACACACCCACCCATACA [CACACA_site2859] — within error, 8.82 ± 0.6
- TTTACAACATCAAAATGTACGCATTATTATTATTAA [XGTACX_site3017] — within error, 8.31 ± 0.32
- TATTTAAAAAATAATACACACATAATATAACAAAAT [CACACA_site3174] — within error, 8.88 ± 0.46
- TGTGTATAAATATACACACACATATAAATATTTTAA [CACACA_site7005] — within error, 8.27 ± 0.32
- ACATATAATATAAATTGTACATATAAATATATTATT [XGTACX_site4268] — within error, 8.38 ± 0.32
- TCATATATTTTATACATACACACATATATATATTTT [CACACA_site3941] — within error, 8.62 ± 0.53
- ACGTTATACACAGTACGTACATAACTATCTAAATGT [XGTACX_site5068] — within error, 8.59 ± 0.34
- TGGAGGTCAGTTCACAGTACCCAGGAAATCTGCGGA [XGTACX_site2556] — within error, 8.44 ± 0.38
- TATAACATAGGACACACACACATACATACACAAAAA [CACACA_site5062] — within error, 8.94 ± 0.35
- ATGCATAATATACTCTTACACACCATTTCTATATAC [CACACA_site1461] — within error, 8.84 ± 0.45
- TTCACTTTTTTTTTTTTTTTTTTTTTTTTTTTTATT [GTGCAC_negctrl_site350] — within error, 8.07 ± 0.56
- TATTTTTATTTATAACGTACGAAAAATGTATATAAT [XGTACX_site703] — within error, 8.79 ± 0.29
- GGTGTATGTTAAAGGAGTACATATATATATATATAT [XGTACX_site7727] — higher, 10.2 ± 0.25
- CATACACATTTCATATGTACATAGATTGAAGGGAAG [XGTACX_site116] — within error, 8.7 ± 0.37
- TTTTATATATAATTCACACAAAAAAGATACATAAGA [CACACA_site5332] — within error, 8.79 ± 0.4
- ATTTTTTTTTTTTTTTTTTTTTTTTTTGAATTCACA [CACACA_negctrl_site982] — within error, 8.09 ± 0.49
- TATATAAAAATATGTTGTACGCATTTATAAATATAT [XGTACX_site3758] — within error, 8.43 ± 0.39
- ACAACACATATTCATCGTACATGTATTAGGAAGACA [XGTACX_site1859] — within error, 8.75 ± 0.48
- TAAGCAAAAATAATTACACACAAATTTATAAAAAAT [CACACA_site3377] — within error, 8.49 ± 0.65
- ATAAAAATATAATTGAGTACATATGAATAGTCCTAT [XGTACX_site6281] — within error, 8.34 ± 0.33
- ATTTTGTTTTTTTTTGCACACCATAAGGAGTGTAGG [CACACA_site1414] — within error, 8.84 ± 0.41
- AATAGTTCTTGAACGTGTACATAAAATATAATTTAC [XGTACX_site11] — within error, 8.53 ± 0.29
- TTCTATTTTTTAAAAGTGCATATTATAAATATATAT — within error, 8.69 ± 0.13
- GAAATCTAAATAGAAACACACATATATAAATAAATA [CACACA_site7762] — within error, 8.46 ± 0.36
- GAATAATCCAAACACACACACACACCCGAATAAATA [CACACA_site482] — within error, 8.79 ± 0.51
- TAGTATTTATATGTTATATATATAAAATAATACAGT [XGTACX_negctrl_site571] — within error, 8.56 ± 0.47
- TATATAGAATTATATGCATGTTCAAAAAAATACAAC [TGCATGCA_site431] — within error, 8.72 ± 0.18
- ATATCTAATAAAAATACACACACATATGATTTGTGA [CACACA_site8558] — within error, 8.1 ± 0.4
- ATATAAATATATATATGTACATAATATATTATGTTT [XGTACX_site2806] — within error, 8.48 ± 0.35
- AATTTAACCACTAAAAGTACACACATATATACATAT [XGTACX_site8352] — within error, 8.675 ± 0.064
- GGACACCTTCAAAACACACATACAAATAAATAGAAA [CACACA_site3305] — within error, 8.74 ± 0.45
- AGGATAATATACAAAAGTACATAAAACTAAAAAAAC [XGTACX_site605] — within error, 9.01 ± 0.24
- AACATATATTTTGAAACACACACATATATAATATAC [CACACA_site8301] — within error, 8.74 ± 0.42
- AAAGAAAGAAAGAATACACACACACCGATATATATA [CACACA_site9246] — within error, 8.88 ± 0.45
- TCCTTTTTACTACTAGTGCATTATTTACAAGGTCCG [GTGCAC_site9441] — higher, 8.995 ± 0.049
- AATGTGTATATATATACACACACATATATATATTTT [CACACA_site8596] — within error, 8.61 ± 0.43
- ATATATATAAAATATTATATTAAAAAAAATAAAATA [GTGCAC_negctrl_site87] — within error, 8.15 ± 0.45
